# Data: PMC4242493
# This is one part of the list. The list includes weakly bound sequences.
# Molecular target: MaxL homodimer (UniProt P61244)
# Test: universal protein-binding microarray (PBM)
# Conditions: PBS-based mixture, 10 nM His-tagged protein dimer, 2% milk, 200 ng/uL BSA, 50 ng/uL salmon testes DNA, 0.02% TX-100; detection with Alexa 488 anti-His …; high values mean tight binding; most listed sequences are background and not binding sites; double strand, one strand shown
# Chain of UniProt P61244 (P61244 whole entry): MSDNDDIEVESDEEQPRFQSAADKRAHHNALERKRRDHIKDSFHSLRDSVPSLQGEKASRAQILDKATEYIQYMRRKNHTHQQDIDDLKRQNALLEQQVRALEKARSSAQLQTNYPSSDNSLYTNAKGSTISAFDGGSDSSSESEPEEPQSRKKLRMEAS
row,Sequence,binding signal (normalized occupancy)
1,TCGTAGCA,0.0796
2,AATTAAAT,0.0748
3,AAATGCGA,0.0758
4,CCGGGGCG,0.063
5,AGGCGCCG,0.07
6,GATAGTGC,0.0782
7,ACGACCAT,0.0839
8,CGCTCCTC,0.0703
9,AGTCGTTA,0.0733
10,CTTAGTTA,0.0752
11,AGAGCTAT,0.0714
12,AGCTAGCC,0.0677
13,GAAGTGGA,0.069
14,AAATTAGA,0.0802
15,AGGGCATA,0.0779
16,AAAACGTC,0.0704
17,ATATGGCG,0.0846
18,CGACCATA,0.0821
19,CAAGTCCG,0.071
20,TAGCCCTA,0.0704
21,GCCAACGA,0.0736
22,GAAAAAAC,0.0761
23,GAATTAAA,0.0764
24,ACACATGT,0.127
25,AAAATTGG,0.0771

row,Sequence,binding signal (normalized occupancy)
1,TCTGCGAA,0.067
2,CGAAGCCG,0.0702
3,GCAGAGAA,0.068
4,GCCGTTAA,0.0697
5,AATTGACT,0.0734
6,ACTGACCG,0.0669
7,ACGAATCT,0.0734
8,AAGAATAG,0.0759
9,AAACACTC,0.0801
10,CGGCTAGC,0.0645
11,AATCCGCA,0.0758
12,AAGATTAC,0.0705
13,GGCTGTTA,0.0784
14,TCTCGTCA,0.077
15,ACCATAGC,0.0741
16,ACCAATAA,0.0733
17,CCCCGCCA,0.0771
18,GGCGCGAA,0.0672
19,CAAATTTG,0.0694
20,CCGACTGC,0.0663
21,CGCTGTTC,0.0749
22,GGGGATAA,0.0829
23,GGACCTGA,0.075
24,CGCTCAAC,0.0727
25,ACTCAACC,0.0725

row,Sequence,binding signal (normalized occupancy)
1,CCGTCTCG,0.0722
2,ACTTAGCA,0.075
3,AACGCTTG,0.0697
4,AGGGAACA,0.0752
5,ATCTACGC,0.0774
6,CCTGCAGG,0.074
7,ACGCACCG,0.0757
8,AAGGGTAG,0.0742
9,CCCACGGC,0.0782
10,CAAGGGCC,0.064
11,AGGTCAGA,0.0716
12,GTATATAA,0.0774
13,CGCAACAG,0.0706
14,AACCAATC,0.0753
15,CGCTGGAC,0.0733
16,GGATGTTA,0.08
17,CACGAGAC,0.1
18,CCAAACCG,0.0668
19,AGTAGTAA,0.0731
20,CCCGCACC,0.0791
21,GATTATGA,0.0801
22,CGACACCG,0.0721
23,AAACCCAG,0.0706
24,ATGGGGCG,0.0866
25,AGACTATG,0.0801

row,Sequence,binding signal (normalized occupancy)
1,CAAGTAGC,0.073
2,CGTGTGAG,0.0893
3,CGCCAAGA,0.0708
4,CTTTACGC,0.0726
5,GACTTTGA,0.0748
6,AATCTCTG,0.0763
7,AAACTTTG,0.0703
8,CATCGTAC,0.0827
9,CGTTTTGC,0.0707
10,AGGGAACC,0.0702
11,AAAGATCA,0.0745
12,AGAAGGAA,0.0755
13,GAAGTACA,0.0746
14,AGCCCCAG,0.0695
15,GATCAGTA,0.076
16,CCTAAGCA,0.0713
17,CTTACTCC,0.0777
18,CTAAGTTA,0.0721
19,CCGTATAA,0.0756
20,CAACAGTG,0.0733
21,AATTTCGC,0.0705
22,TAGCACGA,0.0776
23,CGTTGAGC,0.0723
24,AATGCTAA,0.0733
25,AAGGCATT,0.0725

row,Sequence,binding signal (normalized occupancy)
1,GAACATCC,0.0772
2,CGGCAACC,0.066
3,ACTTGTAT,0.0845
4,CCTTCTCG,0.0739
5,GGCGAGAA,0.0685
6,AGTGGGTC,0.0713
7,ATGCAGAG,0.0722
8,TATCTGGA,0.0789
9,GACGAACA,0.0707
10,CATCGAGG,0.0773
11,ACGCTCCG,0.0727
12,AAGAGATA,0.0732
13,CGCTGACG,0.0714
14,AACACAAA,0.0735
15,AGGGGCCA,0.0738
16,GGAGACGA,0.0726
17,CCGGAGAA,0.0679
18,GCTGATCA,0.072
19,TAGCATAA,0.0826
20,CTTAATTC,0.0739
21,GAATACCC,0.0753
22,AATCGTCA,0.0757
23,GTTACTAA,0.0745
24,CCACATCA,0.0798
25,CCCCCAAG,0.0761

row,Sequence,binding signal (normalized occupancy)
1,GTTACGCA,0.0747
2,AGCGGGGA,0.0718
3,AGTGCCTC,0.0729
4,CAATTTAA,0.076
5,TGCATAAA,0.0782
6,AACCAGCC,0.0688
7,GAGTAAAC,0.074
8,CGACTTTC,0.0737
9,AAGAGAAT,0.0733
10,ATCGCATA,0.082
11,CTCTCAAA,0.0709
12,GATCCCCA,0.0799
13,ACTCGTGG,0.0955
14,ATATGCAA,0.0815
15,ATGGTGCA,0.0823
16,AGTTAATG,0.0796
17,AGAAGGTC,0.0713
18,CGATATAG,0.0758
19,AGTGGACC,0.0686
20,AGGTGCCG,0.0743
21,CATAGTAA,0.0803
22,CGCATAGC,0.0734
23,GCTCTGAA,0.0745
24,ACCTCCAT,0.0778
25,CGGACGCA,0.0735

row,Sequence,binding signal (normalized occupancy)
1,ACACGAGC,0.0815
2,GCACACTA,0.0826
3,AGCCGGTC,0.0683
4,ACATGACT,0.092
5,GGTTGTTA,0.0782
6,CATGATCA,0.087
7,ACCTAAGA,0.0773
8,GTAAGATA,0.0747
9,ACACAGCA,0.0858
10,CCTAGTAA,0.0723
11,CAAGATCC,0.0712
12,AGGCTGGC,0.0702
13,AAGCCTTC,0.0713
14,GCAACGTA,0.0759
15,CGCGGCAG,0.0743
16,AACTTAAT,0.0702
17,AATGCTAG,0.079
18,ATTACGTA,0.0796
19,AATTATAA,0.0729
20,CACCTCTG,0.0758
21,ACCGGCAT,0.0807
22,AAATGGCC,0.074
